From PubChem BioAssay AID894 (National Center for Advancing Translational Sciences (NCATS), 2007)
In all, about 150,000 compounds went through this assay and about 6,500 (4.3%) were called active. The shares of active, inactive and inconclusive entries below differ from those in the screen. Calls come from the whole dose curve; as a rule, active = well fitted inhibition curve with a large enough effect (not every such curve was filed as active); inconclusive = small, poorly fitted or top-dose-only effect, or another doubt; inactive = no such curve, though single readings can be large or run the other way. Potencies of inconclusive entries are doubtful fits and often do not repeat.

The compounds below were run against 15-hydroxyprostaglandin dehydrogenase [NAD(+)] (Homo sapiens) (UniProt P15428) (assay: qHTS Assay for Inhibitors of HPGD (15-Hydroxyprostaglandin Dehydrogenase)). Conditions: purified HPGD, NADH fluorescence kinetic, PGE2 substrate; activity change, negative = inhibition: stronger effect = lower value.
Chain of UniProt P15428 (P15428 whole entry, looked up): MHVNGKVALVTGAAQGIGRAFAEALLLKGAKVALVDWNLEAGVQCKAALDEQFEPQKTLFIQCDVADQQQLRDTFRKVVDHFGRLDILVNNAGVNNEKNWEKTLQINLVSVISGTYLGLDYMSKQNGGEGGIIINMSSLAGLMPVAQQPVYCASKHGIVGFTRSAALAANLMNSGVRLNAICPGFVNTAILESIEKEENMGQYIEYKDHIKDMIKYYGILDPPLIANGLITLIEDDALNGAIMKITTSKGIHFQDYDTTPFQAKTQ
Summary of the method: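 NADH formation kinetics: reaction with 30 uM PGE2 and 1 mM NAD+ (final), 20 nM enzyme, Tris-HCl pH 8 with Tween 20, after 15 min compound preincubation at room temperature. Fluorescence change, last versus first of five reads.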
% is set by controls: 0 for no effect and ±100 for the full control effect; potency is the fitted concentration of half-maximal effect; tags give direction and shape of the fitted curve.

Potency, active:
CCc1ccc(/C=C\C(=O)N2CCc3ccccc3C2)cc1 11.2 µM
CCSc1nnc(NC(=O)C(C(F)(F)F)C(F)(F)F)s1 3.55 µM
CCSC1=NSC2=NC(=O)/C(=C\c3coc4ccccc4c3=O)C(=N)N12 28.2 µM
CC1CCCN(c2ccc(C(=O)NCc3cccs3)cn2)C1 (stereo not drawn) 28.2 µM
O=C(CCCOc1ccccc1)NCC1CCCO1 (stereo not drawn) 12.6 µM
COC(=O)c1ccccc1NC(=S)NC(NC(=O)COc1ccccc1)C(Cl)(Cl)Cl (stereo not drawn) 22.4 µM
Cc1cc(Cl)ccc1OCCCC(=O)NCC1CCCO1 (stereo not drawn) 11.2 µM
Cn1c(C(=O)N2CCCCCC2)cc2c(=O)n(C)c3ccccc3c21 2.82 µM
CCOc1ccc(C(=O)Cc2ccc3oc(C(=O)O)cc3c2)c(O)c1 7.94 µM
COc1ccc(NC(=O)c2cc(-c3ccccc3)oc2C)cc1 22.4 µM
O=c1cc(CSc2nnc(Nc3ccccc3)s2)nc2sccn12 17.8 µM
CN(C)C(=O)c1ccc(-c2nccc(NCc3cccnc3)n2)cc1 14.1 µM
CC(C)(C)NC(=O)CSCc1c(Cl)cccc1Cl 25.1 µM
CCc1ccc(C(=O)CSc2n[nH]c(C)n2)cc1 35.5 µM
CCN(CC)C(=O)CCCOc1ccc(Cl)cc1Cl 25.1 µM

Potency, inconclusive:
S=C(NCCc1ccccc1)NCc1cccs1 22.4 µM [inhibitor, partial curve]
O=C(c1ccco1)N1CCN(c2nc(C3CC3)nc3sc4c(c23)CCCC4)CC1 39.8 µM [inhibitor, single point]
Cc1ccc(C(=O)N/C(=C/C=C\c2ccccc2)C(=O)NCc2ccco2)cc1 14.1 µM [inhibitor, partial curve]
Cc1nn(-c2ccccn2)c2nc(-c3cccs3)cc(C(=O)N3CCOCC3)c12 22.4 µM [inhibitor, partial curve]
CC1=CC2=NC(=O)/C(=C\c3cc(C)n(-c4ccccc4F)c3C)C(=N)N2O1 31.6 µM [inhibitor, single point]
CC(C)CC(=O)Nc1ccc(C(=O)COc2ccc(-c3nnco3)cc2)cc1 35.5 µM [inhibitor, partial curve]
O=C(O)c1c[nH]c2ccc(S(=O)(=O)N3CCN(c4ccc(F)cc4)CC3)cc2c1=O 35.5 µM [inhibitor, single point]
COc1cc(/C=N/Nc2nc(N3CCCC3)nc(N3CCCC3)n2)ccc1O 31.6 µM [inhibitor, single point]
COc1cc(/C=N/NC(=O)c2cc(-c3ccccc3)n[nH]2)cc(OC)c1OC 31.6 µM [inhibitor, partial curve]
Cc1ccc(S(=O)(=O)N2CCN(c3nc4ccccc4nc3-n3nc(C)cc3C)CC2)cc1 31.6 µM [inhibitor, partial curve]
CCn1c2c(c3cc(C(=O)O)ccc31)CCCC2=O 25.1 µM [inhibitor, partial curve]
CCOC(=O)Nc1nnc(-c2cccc(OC)c2)s1 28.2 µM [inhibitor, partial curve]
CCn1c(C)c(C)c2cc(C(=O)Nc3cccc(Cl)c3)ccc21 35.5 µM [inhibitor, partial curve]
O=C(COC(=O)c1ccc2c(c1)OCCO2)NCc1ccccc1 35.5 µM [inhibitor, partial curve]
O=C(c1ccco1)N1CCN(C(=O)c2cnn3c(C(F)(F)F)cc(-c4cccs4)nc23)CC1 28.2 µM [inhibitor, partial curve]
Cc1ccc(S(=O)(=O)c2c(N)n(CCCO)c3nc4ccccc4nc23)cc1 25.1 µM [inhibitor, partial curve]
CCn1cc(/C=C(/C#N)S(=O)(=O)c2ccccc2)cn1 17.8 µM [inhibitor, partial curve]
COC(=O)c1cccc(NC(=S)NCCC2=CCCCC2)c1 25.1 µM [inhibitor, single point]
COCCn1c(=NC(=O)c2ccc(S(=O)(=O)N3CCc4ccccc4C3)cc2)sc2cc(OC)ccc21 25.1 µM [inhibitor, partial curve]
c1ccc(CN2c3ccccc3-c3nc4ccccc4n3C2c2ccccn2)cc1 (stereo not drawn) 35.5 µM [inhibitor, partial curve]
Cc1ccc(-c2cc(-c3ccccc3Cl)[nH]n2)c(O)c1 14.1 µM [inhibitor, partial curve]
CCCc1cc(=O)n2[nH]c(-c3ccc(C)cc3)cc2n1 31.6 µM [inhibitor, partial curve]
CC(C)(Oc1ccc(Cl)cc1)C(=O)Nc1ccc2oc(-c3ccncc3)nc2c1 14.1 µM [inhibitor, partial curve]
COc1cc2[nH]c(=O)n(CCCCCC(=O)NCCCN3CCOCC3)c(=O)c2cc1OC 28.2 µM [inhibitor, partial curve]
CCc1ccc(-c2cc(C(=O)Nc3ccc(S(=O)(=O)NC(C)=O)cc3)c3ccccc3n2)cc1 35.5 µM [inhibitor, partial curve]
COc1ccc(-n2c(=O)c(CCc3ccccc3)nc3cnc(N4CCNCC4)nc32)cc1 22.4 µM [inhibitor, partial curve]
COc1cc(C(=O)Nc2nccs2)ccc1OCc1c(C)noc1C 31.6 µM [inhibitor, partial curve]
COc1ccc(-c2nnc(SCC(=O)c3ccc(C)o3)o2)cc1 14.1 µM [inhibitor, partial curve]
CCC(=O)Nc1ccc2c(c1)C(=O)N(C)C2=O 31.6 µM [inhibitor, partial curve]
Cc1cc(N2CCC(C)CC2)nc2ccc(N3C(=O)CCC3=O)cc12 28.2 µM [inhibitor, partial curve]
COc1cccc(-c2nc3cc(C)ccc3o2)c1 35.5 µM [inhibitor, partial curve]
O=C(NC(=S)Nc1cc([N+](=O)[O-])ccc1Cl)c1ccccc1 2 µM [inhibitor, full curve]
CCN(CC)c1ccc(/C=N/OC(C)C(=O)Nc2ccc(C)cc2)cc1 (stereo not drawn) 35.5 µM [inhibitor, single point]
CCCn1c(-c2ccc(F)cc2)nc2c(NCCN3CCCCC3)nc(C)nc21 28.2 µM [inhibitor, partial curve]
COC(=O)c1c(-c2ccc(C)cc2)csc1NC(=O)c1c(-c2ccccc2)noc1C 28.2 µM [inhibitor, partial curve]

Activity change, negative = inhibition, inactive:
O=C(CNC(=O)c1ccco1)N/N=C/c1ccc(O)c([N+](=O)[O-])c1 -20.6%
CC(=O)Nc1cccc(C(=O)OC(C(=O)c2ccc(C)cc2)c2ccccc2)c1 (stereo not drawn) -18.6%
COc1ccc(Cc2nnc(SCC(=O)NCCc3ccccc3)o2)cc1 -5.48%
CCC(C)(C)n1nnnc1CN(Cc1cccs1)Cc1cc2cc(OC)ccc2[nH]c1=O -24.1%
O=C(c1cc(C2CC2)nc2ccc(Br)cc12)N1N=C(C(F)F)CC1(O)C(F)F (stereo not drawn) -21.3%
COC(=O)c1ccc(C(/C=C/[C@@H](C)C(=O)NCc2cc(C)n(C)n2)NC(=O)OCc2ccccc2)cc1 (stereo partly drawn) -16.8%
COCCNC(=O)Cn1c(=O)n(C)c2ccccc21 -5.48%
Cc1cc(NC(=O)c2cnn3c(C(F)F)cc(-c4ccccc4)nc23)no1 -10.7%
O=C(COc1ccc(Br)cc1)N1CCC(c2ccccc2)C1 (stereo not drawn) -12.5%
CCOC(=O)CSC1=C(C#N)C(c2ccc(C)s2)CC(=O)N1 (stereo not drawn) -8.6%
COCc1cc(=O)[nH]c2cc(NC(=O)C(C)(C)CCl)c(C)cc12 -22.4%
O=C1CN(S(=O)(=O)c2ccc(Cl)cc2)CC(=O)N1CCc1ccccc1 -7.47%
O=[N+]([O-])c1ccc(Cl)c(-c2ccc(/C=N/c3c(-c4ccco4)nc4ccccn34)o2)c1 2.95%
O=C(NCC1CCCO1)c1ccccn1 (stereo not drawn) -15%
Cc1ccc(-c2nc3cnccn3c2Nc2ccc3c(c2)OCCO3)o1 -23.2%
O=C(CSc1nnc2ccccn12)Nc1ccccc1C(=O)NC1CC1 -25.5%
O=C(COC(=O)C12CC3CC(CC(O)(C3)C1)C2)NC(=O)NCc1ccco1 -0.107%
C=CCn1c2ccccc2c2nnc(SCC(=O)Nc3c(C)n(C)n(-c4ccccc4)c3=O)nc21 -7.34%
Cc1ccc(-c2nnn(CC(=O)N(CC3CCCO3)C(C(=O)NCC3CCCO3)c3ccc(F)cc3)n2)o1 (stereo not drawn) -16%
COCCCN1C(=O)C(O)=C(C(=O)c2ccc(C)o2)C1c1cccc(Br)c1 (stereo not drawn) -10.4%
Cc1c(NC(=O)CSC2=C(C#N)C(c3ccccc3F)CC(=O)N2)c(=O)n(-c2ccccc2)n1C (stereo not drawn) -7.1%
CCC(C)Nc1nc(OCC(F)(F)F)nc(OCC(F)(F)F)n1 (stereo not drawn) -12.3%
CC1(C)N=C(N)N=C(N)N1c1cccc(OCc2cccc(N)c2)c1 -2.02%
